From the supplement of paper PMC10126150
Sequences with one replicate were seen in a single cluster, so their values are uncertain.

system: ATP; test: switch fluorescence ratio, 500 uM ATP over buffer (Cy3 cluster intensity, sum of 5 cycles each) (fold (ratio)); higher = stronger signal-on switching upon ATP binding; sequences stand for … in TCGTCGGCAGCGTCAGATGTGTATAAGAGACAGTTTTTTTTTTTTTTTTTTTTTTTTT…TC; settings: aptamer strand: ATP DNA aptamer (quencher-CACCTGGGGGAGTATTGCGGAGGAAGG + anchor), 100 nM annealed; ATP concentration: 500 uM; one replicate
In short: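 Imaging in selection buffer was followed by imaging after 15 min with 500 uM ATP at 22 °C, for Cy3-labelled switching-strand clusters annealed to 100 nM quencher-labelled ATP aptamer on a modified Illumina MiSeq flow-cell. Five of these buffer/ATP cycles ran, separated by NaOH stripping and re-annealing. The fluorescence ratio per cluster is summed target-cycle over summed buffer-cycle Cy3 intensity, averaged per switch-domain sequence; clusters outside 100-1000 RFU were removed.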
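Also: ATP exposure 15 min at 22 °C before imaging.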

| Sequence | switch fluorescence ratio |
| --- | --- |
| GGCTCCCATG | 1.07 |
| GGCTCTACGA | 1.01 |
| GGCTCTAGTC | 0.989 |
| GGCTCTGGC | 0.98 |
| GGCTGAACAG | 1.01 |
| GGCTGCAAAT | 1.07 |
| GGCTGGCCGG | 0.953 |
| GGCTGTGAAT | 1.01 |
| GGCTGTGCTT | 1.02 |
| GGCTTACAAT | 0.991 |
| GGCTTAGTA | 1.02 |
| GGCTTATAAG | 0.952 |
| GGCTTATTCG | 1.01 |
| GGCTTCTGTA | 1.01 |
| GGCTTGGC | 1.06 |
| GGCTTTCACT | 0.949 |
| GGCTTTGAAT | 0.963 |
| GGCTTTGATG | 0.987 |
| GGGAAAAGCT | 1.02 |
| GGGAAATACA | 1.02 |
| GGGAAATACG | 1.17 |
| GGGAACTTGT | 1.05 |
| GGGAAGTAAT | 1 |
| GGGAAGTAGA | 0.995 |
| GGGAAGTTAT | 1.03 |
| GGGAATCCCC | 2.9 |

| Sequence | switch fluorescence ratio |
| --- | --- |
| GGGAATCTGG | 1.02 |
| GGGAATGGAC | 0.987 |
| GGGACAATAG | 1.02 |
| GGGACACCGG | 1.04 |
| GGGACAGTTC | 1 |
| GGGACCGTAC | 1.29 |
| GGGACCGTCT | 0.976 |
| GGGACCTGGT | 1.06 |
| GGGACGCCCT | 1.06 |
| GGGACGGGAA | 1.35 |
| GGGACGGGCT | 1.26 |
| GGGACGTGTA | 1.01 |
| GGGACTGCCC | 1.01 |
| GGGACTTATT | 1.01 |
| GGGAGAACCG | 0.956 |
| GGGAGACT | 1.02 |
| GGGAGATG | 1 |
| GGGAGCTGCT | 0.969 |
| GGGAGGCTGA | 1.04 |
| GGGAGGGCAG | 0.984 |
| GGGAGGTCGC | 0.984 |
| GGGAGTACAT | 0.957 |
| GGGAGTCATA | 1.05 |
| GGGAGTTACG | 1.01 |
| GGGATAACGT | 0.955 |
| GGGATAGCCT | 1 |

| Sequence | switch fluorescence ratio |
| --- | --- |
| GGGATATGAC | 1.04 |
| GGGATCATTT | 1 |
| GGGATCCCGT | 0.994 |
| GGGATGACGT | 0.943 |
| GGGATTCATA | 1.02 |
| GGGATTGGCG | 1.01 |
| GGGATTTAAT | 0.996 |
| GGGCAAAACA | 3.94 |
| GGGCAAAACT | 1.14 |
| GGGCAACACC | 1.02 |
| GGGCAACGGA | 1.15 |
| GGGCAAGTTT | 0.957 |
| GGGCACCGCA | 1.02 |
| GGGCACCTCT | 0.991 |
| GGGCACTGCA | 1.01 |
| GGGCACTTAT | 1.05 |
| GGGCAGGTCC | 1.02 |
| GGGCAGTTAG | 1.04 |
| GGGCATGACA | 0.999 |
| GGGCATGAGG | 0.992 |
| GGGCCAGAAA | 0.922 |
| GGGCCGAGTC | 1 |
| GGGCCTTAC | 1.97 |
| GGGCGAATGA | 0.98 |
